The list shows a part of the results. The full chains were built here from the parent and the listed change. Values near 0.05 are background.
B1: TEV protease; numbered along this chain (parent)
chain: MGESLFKGPRDYNPISSSICHLTNESDGHTTSLYGIGFGPFIITNKHLFRRNNGTLVVQSLHGVFKVKDTTTLQQHLVDGRDMIIIRMPKDFPPFPQKLKFREPQREERICLVTTNFQTKSMSSMVSDTSCTFPSGDGIFWKHWIQTKDGQCGSPLVSTRDGFIVGIHSASNFTNTNNYFTSVPKNFMELLTNQEAQQWVSGWRLNADSVLWGGHKVFMVKPEEPFQPVKEATQL

Variants of: B1
Assay: raw area under fraction-flipped curve 0-4 h after induction (AUC4h, not background-subtracted), DNA-recorder readout of cleavage of the substrate (dimensionless); higher = more cleavage of the substrate by the protease variant
Conditions: temperature: 34 °C; time window: 0-4 h after rhamnose induction
Procedure: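 In vivo DNA recorder in E. coli TOP10(DE3) ΔrhaA at 34 °C. Each TEVp single-site mutant (parent TEVp 0) is paired with a single-site variant of the 7-mer TEVs (canonical ENLYFQ|S). The substrate sits between flexible linkers in a Bxb1-sfGFP-TEVs-SsrA fusion, so cleavage stabilises Bxb1 and speeds flipping of a recombination array, read by NGS. The value is the raw area under the fraction-flipped curve over 0-4 h after rhamnose induction (AUC4h), with ≥20 reads per time point. It is not background-subtracted; inactive controls average about 0.047.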
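Note: Bxb1 expression induced with 0.2% (w/v) L-rhamnose at OD600 near 0.5, cultures sampled hourly, flipped fraction per protease–substrate barcode pair counted by paired-end Illumina sequencing.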

| Variant | area with substrate ENLYAQS | area with substrate ENLYCQS | area with substrate ENLYDQS | area with substrate ENLYEQS | area with substrate ENLYHQS | area with substrate ENLYIQS | area with substrate ENLYKQS | area with substrate ENLYLQS | area with substrate ENLYMQS | area with substrate ENLYNQS | area with substrate ENLYPQS | area with substrate ENLYQQS | area with substrate ENLYRQS | area with substrate ENLYSQS | area with substrate ENLYWQS | area with substrate ENLYGQS | area with substrate ENLYTQS | area with substrate ENLYVQS | area with substrate ENLYYQS |
| --- | --- | --- | --- | --- | --- | --- | --- | --- | --- | --- | --- | --- | --- | --- | --- | --- | --- | --- | --- |
| G54V | 0.0652 | 0.0744 | 0.05 | 0.0589 | 0.0577 | 0.0752 | 0.0586 | 0.0547 | 0.0739 | 0.0438 | 0.0533 | 0.0593 | 0.0615 | 0.0648 | 0.0638 |  |  |  |  |
| Q59I | 0.0464 |  |  |  | 0.0822 | 0.126 | 0.0828 | 0.0885 | 0.0977 | 0.0547 | 0.0719 |  |  |  | 0.07 | 0.0579 | 0.0875 | 0.11 | 0.0542 |
| S60K | 0.0641 |  | 0.0376 | 0.0522 | 0.0529 |  | 0.0146 |  | 0.0668 |  | 0.0601 | 0.057 |  | 0.0684 |  | 0.0687 |  | 0.102 |  |
| L61H | 0.0735 | 0.088 | 0.0721 | 0.0707 | 0.0644 | 0.125 | 0.0586 | 0.092 |  | 0.0646 | 0.0764 | 0.0554 | 0.0568 |  | 0.0721 | 0.0454 | 0.0818 | 0.135 |  |
| L61W | 0.0911 |  |  | 0.0907 | 0.0709 | 0.12 | 0.0677 |  | 0.0909 | 0.0626 | 0.0692 |  |  | 0.0716 | 0.0713 | 0.0561 | 0.077 |  |  |
| F65L | 0.0755 |  | 0.0552 | 0.0584 |  |  |  | 0.0783 | 0.101 |  | 0.097 |  | 0.0545 |  | 0.1 | 0.0679 |  |  |  |
| T70E | 0.061 |  | 0.0553 | 0.0521 | 0.066 | 0.0855 | 0.0545 |  | 0.06 | 0.0568 | 0.0531 |  |  | 0.0591 |  | 0.0553 | 0.0554 | 0.0972 |  |
| T71E | 0.0619 |  |  | 0.0661 | 0.0588 |  | 0.0504 |  | 0.0557 | 0.0732 | 0.0656 | 0.0812 |  | 0.0623 | 0.0625 | 0.0733 | 0.0634 |  |  |
| L73I | 0.0917 |  | 0.059 | 0.0748 | 0.0722 | 0.114 | 0.0639 | 0.11 |  | 0.0752 | 0.0675 | 0.0761 | 0.0719 | 0.0847 | 0.0758 | 0.071 | 0.107 | 0.15 | 0.0979 |
| Q75F | 0.0769 |  | 0.0608 | 0.0621 |  | 0.148 | 0.082 | 0.0653 | 0.0659 | 0.0675 | 0.0576 | 0.0613 | 0.0606 |  | 0.0713 | 0.0424 | 0.0725 | 0.0709 | 0.0764 |
| Q75R | 0.0661 | 0.0645 | 0.0644 | 0.0624 |  | 0.0585 | 0.0576 |  | 0.0508 | 0.0463 | 0.0486 | 0.0596 | 0.0641 | 0.0561 | 0.0532 | 0.0575 | 0.0722 | 0.048 | 0.0521 |
| V78P | 0.0689 |  | 0.0639 |  | 0.0611 | 0.073 | 0.0629 |  | 0.0688 | 0.0606 | 0.0522 | 0.05 | 0.0451 |  | 0.0531 | 0.0657 |  | 0.0875 | 0.0747 |
| V78Y | 0.061 | 0.0771 | 0.0619 | 0.0599 | 0.0739 | 0.0784 | 0.0657 |  | 0.0273 |  | 0.0566 | 0.0533 | 0.0708 |  | 0.0685 | 0.059 |  | 0.0668 | 0.0491 |
| D82N | 0.0612 | 0.0616 | 0.0868 | 0.0575 | 0.0587 | 0.103 | 0.0202 |  | 0.0588 |  | 0.0605 | 0.0732 | 0.0815 | 0.0538 | 0.0538 | 0.055 |  | 0.0673 | 0.0587 |
| M83D | 0.0434 | 0.0511 | 0.0459 | 0.045 | 0.052 | 0.0515 |  | 0.0601 | 0.0416 | 0.051 | 0.0507 | 0.0586 | 0.0607 | 0.0516 | 0.0483 | 0.0447 | 0.0519 | 0.0521 |  |
| I84E | 0.0387 | 0.0557 | 0.0536 | 0.0563 | 0.0544 | 0.0541 | 0.0592 |  | 0.0564 | 0.0604 | 0.0463 | 0.0576 | 0.0567 | 0.0575 | 0.0545 | 0.0594 |  | 0.0659 | 0.0484 |
| I85R | 0.0611 |  |  | 0.0627 | 0.059 | 0.0588 | 0.068 | 0.0843 | 0.0561 | 0.0623 | 0.054 | 0.0651 | 0.0619 |  | 0.06 |  |  | 0.0616 |  |
| I86V | 0.0859 |  | 0.0672 | 0.0821 | 0.0749 | 0.116 |  | 0.082 |  | 0.0704 | 0.0757 | 0.0606 | 0.0623 |  | 0.0705 | 0.0603 | 0.089 | 0.106 | 0.0715 |
| F92C | 0.0885 |  | 0.0662 | 0.06 | 0.0709 | 0.112 | 0.0266 | 0.0537 | 0.0938 | 0.0563 | 0.0653 | 0.0652 | 0.0683 | 0.0732 | 0.086 | 0.0525 | 0.0919 | 0.129 | 0.0657 |
| K98C | 0.0766 | 0.074 | 0.0626 | 0.0057 | 0.0739 | 0.102 | 0.0539 | 0.0926 |  | 0.065 | 0.061 | 0.0715 | 0.062 | 0.0781 | 0.0846 | 0.0696 |  | 0.13 | 0.0558 |
| K98L | 0.0557 |  | 0.0537 | 0.0801 | 0.0705 | 0.117 | 0.0424 |  | 0.0787 | 0.0725 |  | 0.0688 | 0.0616 | 0.0735 | 0.0732 | 0.0778 |  |  | 0.027 |
| R102H | 0.0499 | 0.0558 | 0.0527 | 0.0566 | 0.0571 |  | 0.0457 |  | 0.0616 | 0.0579 | 0.0506 | 0.0523 | 0.0496 | 0.0546 | 0.062 | 0.0576 | 0.0494 | 0.0739 |  |
| P104G | 0.0489 |  | 0.054 | 0.0429 | 0.0455 | 0.0537 | 0.0177 |  | 0.0478 | 0.056 | 0.0402 | 0.0448 | 0.0517 | 0.0601 | 0.0508 |  | 0.0524 | 0.0505 | 0.0248 |
| Q105D | 0.0583 |  | 0.0609 | 0.0563 | 0.0702 | 0.14 | 0.0648 | 0.0868 | 0.132 | 0.0687 | 0.0684 | 0.082 | 0.0467 | 0.0938 | 0.0745 |  |  |  | 0.0623 |
